# In PubChem BioAssay AID485294 (National Center for Advancing Translational Sciences (NCATS), 2010):
# Values joined by “and” are separate entries in the source; they are usually repeats but may differ in a detail not shown here. Identical values can stand only once. Out of some 370,000 compounds screened, about 150 (0.041%) were called active. The shares of active, inactive and inconclusive entries below differ from those in the screen. Calls follow the shape of the dose curve; as a rule, active = well fitted inhibition curve with a large enough effect; inconclusive = small, poorly fitted or top-dose-only effect; inactive = flat fitted curve, though single readings scatter. A potency beside an inconclusive call is a rough fit, not a confirmed value.
# Target: Beta-lactamase (Escherichia coli (strain K12)) (UniProt P00811)
# Test: qHTS Inhibitors of AmpC Beta-Lactamase (assay with detergent); also: nearly all actives have a fitted effect of over 25% in size
# Conditions: AmpC hydrolysis of nitrocefin, absorbance 480 nm, 0.01% Triton; series mostly up to 114 µM
# Method in brief: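 AmpC (5.3 nM in the dispensed reagent) in 20 mM phosphate pH 7.0 with 0.01% (detergent screen) or 0.0001% Triton X-100 was preincubated with compounds for 15 min at room temperature. Nitrocefin was then added from an 800 uM solution, and hydrolysis was followed at 480 nm.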
# Potency is read from the fitted curve at half-maximal effect; tags tell the direction and shape of the fitted curve.
# Sequence of UniProt P00811 (P00811 whole entry, looked up): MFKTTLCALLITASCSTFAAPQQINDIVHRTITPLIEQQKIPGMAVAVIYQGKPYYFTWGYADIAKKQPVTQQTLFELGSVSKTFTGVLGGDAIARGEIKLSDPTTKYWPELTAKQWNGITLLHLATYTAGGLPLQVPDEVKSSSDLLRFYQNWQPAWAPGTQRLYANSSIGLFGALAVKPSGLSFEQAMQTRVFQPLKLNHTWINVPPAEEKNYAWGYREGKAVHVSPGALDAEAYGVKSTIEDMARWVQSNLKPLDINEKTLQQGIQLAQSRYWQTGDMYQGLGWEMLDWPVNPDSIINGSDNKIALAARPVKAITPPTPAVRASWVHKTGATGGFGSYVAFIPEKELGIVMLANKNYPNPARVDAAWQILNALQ
row,Structure (SMILES),Potency
1,CN(C)C(=O)CN1C(=O)NC(c2ccccc2)(c2ccccc2)C1=O,"inconclusive: 1.41 µM [inhibitor, full curve, poor fit]"
2,COc1cc(OC)c(Cl)cc1N,"inconclusive: 0.355 µM [inhibitor, full curve, poor fit]"
3,N#C/C(=C\c1ccc(OCCN2CCOCC2)cc1)C(=O)Nc1ccccc1,"inconclusive: 1.58 µM [inhibitor, full curve]"
4,COCCn1c(=O)[nH]c2cc(C(=O)NCC3CCCO3)ccc2c1=O (stereo unspecified),"inconclusive: 89.1 µM [inhibitor, partial curve, poor fit]"
5,COc1ccc(/C=C(\C#N)C(=O)NCC2CCCO2)cc1OC (stereo unspecified),inactive
6,O=C(NCc1cccs1)C(Cc1ccccc1)NS(=O)(=O)c1cccs1 (stereo unspecified),"inconclusive: 100 µM [inhibitor, single point]"
7,O=C(CN1CCN(c2ccc(Cl)cc2)CC1)NCc1cccs1,"inconclusive: 100 µM [inhibitor, single point]"
8,Cc1ccc(S(=O)(=O)CCC(=O)N(CCCN2CCOCC2)c2nc3ccccc3s2)cc1,inactive
9,CCCCNC(=S)NNC(=O)c1sccc1C,"inconclusive: 11.2 µM [inhibitor, full curve, poor fit]"
10,Cc1ccc(S(=O)(=O)N2CCN(c3ccccc3)CC2)cc1C(N)=O,"inconclusive: 15.8 µM [inhibitor, single point]"
11,Cc1ccc2c(c1)c1c3n2CCNC3CCC1 (stereo unspecified),"inconclusive: 44.7 µM [inhibitor, partial curve, poor fit]"
12,CCOc1ccc(OCC)c(C2C(C#N)=C(N)N(c3cccnc3)C3=C2C(=O)CC(C)(C)C3)c1 (stereo unspecified),inactive
13,O=C(CSc1nc(O)c(Cc2ccccc2F)c(=O)[nH]1)N1CCCCCC1,"inconclusive: 100 µM [inhibitor, single point]"
14,Cc1ccc2c(c1)cc(CN(Cc1ccc3c(c1)OCO3)C(=O)c1cnccn1)c1nnnn12,"inconclusive: 0.355 µM [inhibitor, full curve, poor fit]"
15,O=C1CCCC2=C1C(c1ccco1)Nc1ccc(C(=O)c3ccccc3)cc1N2 (stereo unspecified),"inconclusive: 112 µM [inhibitor, partial curve, poor fit]"
16,C=CCn1c(SCC(N)=O)nc2sc3c(c2c1=O)CCC3,"inconclusive: 44.7 µM [inhibitor, partial curve, poor fit]"
17,O=C(Cc1ccccc1F)Nc1ccc(SC(F)F)cc1,"inconclusive: 50.1 µM [inhibitor, partial curve, poor fit]"
18,Cc1nnc(N2C(=O)C(O)=C(C(=O)c3ccco3)C2c2ccc(F)cc2)s1 (stereo unspecified),"inconclusive: 2 µM [inhibitor, full curve]"
19,O=C(Nc1ncccc1Cl)C1COc2ccccc2O1 (stereo unspecified),inactive
20,COc1cccc(NC(=O)C2C3C=CC4(O3)C2C(=O)N(C2CC2)C4C(=O)NC2CCCCC2C)c1 (stereo unspecified),"inconclusive: 0.316 µM [inhibitor, full curve, poor fit]"
21,O=C(O)/C=C/C(=O)Nc1cccc2cccnc12,inactive
22,O=c1oc2ccccc2n1CCn1c2ccccc2c2nc3ccccc3nc21,"inconclusive: 1.58 µM [inhibitor, full curve]"

row,Structure (SMILES),Potency
1,CC(C)(C)OC(=O)NNC(=S)NCc1ccc(Cl)cc1,"inconclusive: 28.2 µM [inhibitor, full curve, poor fit]"
2,CN1CCC(=O)N([C@H](CO)Cc2ccccc2)CC1,"inconclusive: 50.1 µM [inhibitor, partial curve, poor fit]"
3,Cc1cc(N=CC2=C(O)CC(C)(C)CC2=O)no1,"inconclusive: 112 µM [inhibitor, partial curve, poor fit]"
4,NC(=S)N/N=C/c1ccccc1OCc1cccc(Cl)c1,"inconclusive: 1.58 µM [inhibitor, full curve, poor fit]"
5,CCN(CC)CCNC(=O)C1CCN(S(=O)(=O)c2c(C)noc2/C=C/c2ccccc2F)CC1,"inconclusive: 2.24 µM [inhibitor, single point] and inconclusive: 5.62 µM [inhibitor, full curve, poor fit]"
6,CCn1c(SCC(=O)O)nnc1-c1ccc2[nH]c(C)c(C)c2c1,"inconclusive: 1.41 µM [inhibitor, full curve, poor fit]"
7,COC(=O)c1ccc(COC(=O)CCc2nc(-c3ccccc3)c(-c3ccccc3)o2)cc1,"inconclusive: 1.26 µM [inhibitor, full curve]"
8,COc1ccc(N(CC(=O)NCc2cccs2)S(=O)(=O)c2ccc(F)cc2)cc1,"inconclusive: 12.6 µM [inhibitor, partial curve, poor fit]"
9,CN(C(=O)c1ccc(NC(=O)Cc2cccc(NC(=O)C3CCN(C(=O)c4ccccc4)CC3)c2)cc1)C1CCCC1,inactive
10,COc1ccc(COC(=O)C2=C(C)NC(=O)NC2c2ccc(OC)cc2)cc1 (stereo unspecified),"inconclusive: 2.51 µM [inhibitor, full curve, poor fit]"
11,COc1ccc(-c2oc(NC(=O)CSc3ncn[nH]3)c(C#N)c2-c2ccc(OC)cc2)cc1,"inconclusive: 3.55 µM [inhibitor, full curve, poor fit]"
12,Cc1nc2ccc(NS(=O)(=O)c3ccc(F)c(C)c3)cc2[nH]1,inactive
13,CCOC(=O)C1=C(CSCC(=O)OC)NC(=O)NC1c1cc(C)ccc1C (stereo unspecified),"inconclusive: 3.98 µM [inhibitor, partial curve, poor fit]"
14,Cc1nc(CCNC(=O)Cc2ccc(Cl)cc2)cs1,"inconclusive: 0.891 µM [inhibitor, full curve, poor fit]"
15,CNC(=O)COC(=O)c1cc(SC)ccc1Cl,"inconclusive: 28.2 µM [inhibitor, full curve, poor fit]"
16,CCOc1ccccc1CNC(=O)CN1C(=O)CCCc2ccccc21,inactive
17,Cc1cccc(OCCCCn2nnc3sc4c(c3c2=O)CCC(C)C4)c1 (stereo unspecified),inactive
18,O=C(Cn1nc(N2CCN(c3ccccc3)CC2)ccc1=O)NCc1cccc(Cl)c1,inactive
19,CNC(=O)CSc1nc2nc(C)cc(C)n2n1,inactive
20,Cc1ccnc2c(N3C(=O)C4C5C=CC(C5)C4(C)C3=O)cccc12 (stereo unspecified),"inconclusive: 35.5 µM [inhibitor, partial curve]"
21,COc1ccc(-c2nc(-c3ccc(NC(=O)c4ccc(Br)o4)cc3)no2)cc1OC,inactive
22,COc1ccccc1NC(=O)Nc1nc(CC(=O)Nc2ccc(N(C)C)cc2)cs1,"inconclusive: 0.891 µM [inhibitor, full curve]"

row,Structure (SMILES),Potency
1,COc1ccc(-c2ncc3ccccn23)cc1OC,"inconclusive: 89.1 µM [inhibitor, single point]"
2,Cc1ccc(C)n1-c1ccncc1,"inconclusive: 2.51 µM [inhibitor, full curve]"
3,COc1cc(CNc2ccc3[nH]c(=O)[nH]c3c2)cc(Br)c1OCC(=O)NC(C)(C)C,"inconclusive: 3.16 µM [inhibitor, full curve, poor fit]"
4,Cc1ccccc1C(O)c1ccccn1 (stereo unspecified),"inconclusive: 63.1 µM [inhibitor, single point]"
5,COc1cc(C(=O)Nc2cnc(NC(=O)C(C)C)cc2C)cc(OC)c1OC,"inconclusive: 39.8 µM [inhibitor, full curve, poor fit]"
6,COc1ccc2c(c1)CC/C2=N\OC(=O)c1ccccc1C,"inconclusive: 89.1 µM [inhibitor, single point]"
7,O=C(c1ccc(=O)oc1)N1CCCc2ccccc21,"inconclusive: 89.1 µM [inhibitor, single point]"
8,CCOC(=O)c1c(NC(=O)c2nn(CC)cc2Br)sc2c1CCCCC2,"inconclusive: 50.1 µM [inhibitor, partial curve, poor fit]"
9,CCS(=O)(=O)c1ccc(C(=O)Nc2cccc(Cl)c2)c(Cl)c1Cl,"inconclusive: 89.1 µM [inhibitor, single point]"
10,CCC(=O)N1CCc2cc(S(=O)(=O)CCC(=O)N3CCN(c4ccc(F)cc4)CC3)ccc21,inactive
11,c1nnc(NC2=NCCC2)s1,"inconclusive: 5.01 µM [inhibitor, full curve, poor fit]"
12,O=C(O)c1ccc2cccc(Cl)c2c1O,"inconclusive: 0.631 µM [inhibitor, full curve, poor fit]"
13,COc1ccc(S(=O)(=O)N2CCCC(C(=O)NC3CCCCC3)C2)cc1 (stereo unspecified),"inconclusive: 5.01 µM [inhibitor, full curve, poor fit]"
14,O=C(COC(=O)c1cc[n+]([O-])cc1)NCc1ccccc1Cl,"inconclusive: 25.1 µM [inhibitor, full curve, poor fit]"
15,CCCCc1ccc(NC(=O)N[C@H](C(=O)O)C(C)CC)cc1 (stereo partly specified),"inconclusive: 31.6 µM [inhibitor, full curve, poor fit]"
16,COc1ccc(S(=O)(=O)NCCc2cn3ccsc3n2)cc1OC,inactive
17,NNC(=O)/C(=C\c1cccs1)NC(=O)c1ccccc1,"inconclusive: 39.8 µM [inhibitor, partial curve, poor fit]"
18,CCc1ccc(NC(=O)C(CC)c2ccccc2)cc1 (stereo unspecified),"inconclusive: 1.41 µM [inhibitor, full curve, poor fit]"
19,CCCN(Cc1cccs1)C(=O)Nc1ccccc1C,inactive
20,C/C(=N\NC(=O)c1ccco1)c1cccc2ccccc12,inactive
21,CSc1nc2cc3c(cc2n1C(=O)c1ccc(C)cc1)OCCO3,"inconclusive: 89.1 µM [inhibitor, single point]"
22,CCCOc1ccc(/C=C/C(=O)OCC(=O)N(C)c2c(N)n(Cc3ccccc3)c(=O)[nH]c2=O)cc1OCC,inactive
